In PubChem BioAssay AID1347043 (National Center for Advancing Translational Sciences (NCATS), 2019):
The campaign covered roughly 76,000 compounds. About 1,900 (2.5%) were called active. The inconclusive results got no clear call from the source; some entries with a clear call stand among them for comparison. The call rests on the fitted dose curve; in most records, active means well fitted inhibition curve with a large enough effect; inconclusive means small, poorly fitted or top-dose-only effect; inactive means flat fitted curve, though single readings scatter. Potencies beside an inconclusive call are fits to weak or partial responses and may not hold up.

Each molecule was assayed against Luciferin 4-monooxygenase (Photinus pyralis) (UniProt P08659) (assay: Firefly luciferase inhibition profiling of diverse chemical library using quantitative high-throughput screening). Conditions: purified P. pyralis luciferase, luminescence, biochemical; series mostly up to 115 µM.
Chain of UniProt P08659 (P08659 whole entry, looked up): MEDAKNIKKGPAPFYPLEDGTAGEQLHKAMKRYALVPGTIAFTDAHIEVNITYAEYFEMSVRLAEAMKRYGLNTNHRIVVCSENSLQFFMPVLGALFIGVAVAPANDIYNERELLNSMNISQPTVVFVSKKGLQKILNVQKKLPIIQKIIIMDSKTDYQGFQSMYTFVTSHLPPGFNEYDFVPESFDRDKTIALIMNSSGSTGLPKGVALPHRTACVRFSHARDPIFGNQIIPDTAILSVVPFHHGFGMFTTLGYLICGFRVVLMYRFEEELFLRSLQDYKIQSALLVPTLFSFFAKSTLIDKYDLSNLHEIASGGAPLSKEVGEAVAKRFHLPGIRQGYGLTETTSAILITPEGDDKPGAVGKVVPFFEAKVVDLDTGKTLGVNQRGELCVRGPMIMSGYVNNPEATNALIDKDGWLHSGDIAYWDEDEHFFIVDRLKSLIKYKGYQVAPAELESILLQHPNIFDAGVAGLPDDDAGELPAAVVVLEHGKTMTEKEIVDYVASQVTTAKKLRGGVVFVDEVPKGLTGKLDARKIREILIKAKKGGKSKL
In short: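 FLuc 10nM, D-luciferin 10uM, ATP 10uM, Mg acetate 10mM, Tris acetate pH 7.5, Tween/BSA; cpd qHTS; enzyme added last; CCD luminescence.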
Further: nearly all actives have a fitted effect of over 65% in size.
Potency means the concentration at half of the fitted maximal effect; tags describe the fitted curve by direction and shape.

| Compound | Potency |
| --- | --- |
| Cc1ccc(-c2cc(-c3cccnc3)nc3c(C)noc23)c(C)c1 | inconclusive: 0.794 µM [inhibitor, full curve] |
| Cc1ccc2nc([C@H]3CCN(Cc4ccccn4)C3)[nH]c2c1 | active: 39.8 µM |
| CN(Cc1cccc(C(F)(F)F)c1)C(=O)Cc1cccc(Cl)c1 | inconclusive: 56.2 µM [inhibitor, partial curve, poor fit] |
| COc1ccc(C(=O)N[C@@H]2CCC[C@@H]2C(=O)NCc2ccccn2)cc1 | inactive |
| COc1ccc(-n2ccnc2CN2CCN(CC=C(C)C)C(CCO)C2)cc1 (stereo not given) | inactive |
| Cc1nc(NCCN2CCOC2=O)c2sccc2n1 | inactive |
| Cc1ocnc1C(=O)N1CCc2nc(N)nc(N3CC[C@H](O)C3)c2CC1 | inactive |
| CCOc1ccc2c(n1)CCN(C(=O)CCC1CCCC1)C2 | inconclusive: 50.1 µM [inhibitor, partial curve] |
| COc1ccc(OCC2(C)COc3ccc(C(=O)Nc4ccn(C)n4)cc3N2)cc1 (stereo not given) | inconclusive: 100 µM [inhibitor, partial curve, poor fit] |
| CCCc1nc(C(=O)N2CCC3(CCCNC3)C2)cs1 (stereo not given) | inconclusive: 50.1 µM [inhibitor, partial curve, poor fit] |
| CCOc1ccc(NC(=O)C2CCN(C(=O)c3ncn4c3COC(c3ccccc3)C4)CC2)cc1 (stereo not given) | active: 12.6 µM |
| Cc1c(-c2ccc(F)cc2)[nH]c2ccc(CNCc3cnn(C)c3)cc12 | inconclusive: 50.1 µM [inhibitor, partial curve] |
| O=C1CC2(CCN(Cc3cccnc3)CC2)Oc2cc(Cl)ccc21 | active: 25.1 µM |
| Clc1ccc(CN2CC[C@H](c3nc4cc(Cl)ccc4o3)C2)cc1 | inconclusive: 70.8 µM [inhibitor, partial curve] |
| Cc1cn2nc(-c3nc(C4CCCN(C(=O)c5ccccc5)C4)no3)cc2c(=O)[nH]1 (stereo not given) | inconclusive: 56.2 µM [inhibitor, partial curve, poor fit] |
| Nc1cccc(-c2ccc(N3CCOCC3)nn2)c1 | active: 3.16 µM |
| O=C(c1cccs1)N1CCCC(n2cc(-c3nc(-c4ccccc4)no3)nn2)C1 (stereo not given) | active: 35.5 µM |
| CN(c1ccccc1)c1ccc2c(n1)CN(CCOc1ccccc1)C(=O)CO2 | inconclusive: 79.4 µM [inhibitor, partial curve] |
| COc1ccc(-c2noc([C@@H]3Cc4nc[nH]c4CN3Cc3ccccc3)n2)cc1 | inconclusive: 89.1 µM [inhibitor, partial curve] |
| COc1cccc(-c2noc(-c3ccc(NCCn4cccn4)nc3)n2)c1OC | active: 15.8 µM |
| O=C(N[C@H]1CCN2C(=O)c3cc(-c4ccc5c(c4)OCO5)ccc3NC(=O)[C@H]12)c1cccs1 | inconclusive: 22.4 µM [inhibitor, single point] |
| COc1ccc(CN2CCN(c3nc4ccccc4o3)CC2CCO)cc1C (stereo not given) | inconclusive: 44.7 µM [inhibitor, partial curve] |
| CC(Cc1cnccn1)NC(=O)c1csc2nc(-c3cccc(C(F)(F)F)c3)cn12 (stereo not given) | inconclusive: 56.2 µM [inhibitor, partial curve, poor fit] |
| NC(=O)Cn1ccc2cc(OCC3CCN(c4cc(NC5CC5)ncn4)CC3)cnc21 | inconclusive: 70.8 µM [inhibitor, full curve] |

| Compound | Potency |
| --- | --- |
| COc1ccc(-c2ccc3c(c2)C(=O)N2CC[C@H](NC(=O)COCC(=O)O)[C@H]2C(=O)N3)c(OC)c1 | inconclusive: 50.1 µM [inhibitor, partial curve, poor fit] |
| Cc1ccc(F)cc1NC(=O)c1cc(-c2ccc[nH]2)n[nH]1 | active: 39.8 µM |
| COc1ccc(-n2cc(CN3CCN(C)C(C)C3)c(-c3cccc(F)c3)n2)cc1 (stereo not given) | inconclusive: 79.4 µM [inhibitor, partial curve] |
| CC(C)c1noc(-c2ccn3c(CNC(=O)c4cccc(N(C)C)c4)nnc3c2)n1 | active: 28.2 µM |
| O=C(CN1C(=O)NC2(CCCCC2)C1=O)Nc1ccc(C(F)(F)F)cc1 | inactive |
| Cc1ccc(NC(=O)Cn2ccn3nc4c(c3c2=O)CCCC4)cc1Cl | inactive |
| CC(C)c1nc(C2Cc3ccccc3N2C(=O)NC2CCCC2)no1 (stereo not given) | active: 7.94 µM |
| Cc1ccc(-c2cc3c(=O)n(CCNC(=O)c4nccc5ccccc45)ccn3n2)c(C)c1 | active: 3.55 µM |
| COc1ccc(C(=O)N2CCCC(n3cc(-c4nc(-c5ccccc5)no4)nn3)C2)cc1OC (stereo not given) | inconclusive: 100 µM [inhibitor, single point] |
| CN1c2cc(C(=O)Nc3ccc(C(F)(F)F)cc3)ccc2C(=O)N2CCCCCC21 (stereo not given) | inconclusive: 31.6 µM [inhibitor, partial curve, poor fit] |
| CC1(C)[C@H]2CC[C@@H](CNC(=O)c3ccc4c(c3)OCO4)[C@@H]1C2 | inactive |
| Cc1ccc(-c2cc3c(=O)n(CCNC(=O)C4CCCCC4)ccn3n2)c(C)c1 | active: 2 µM |
| COc1cc(OC)cc(C(=O)NC2CCN(c3cc(-c4ccc(F)cc4)[nH]n3)C2)c1 (stereo not given) | inactive |
| COc1cc(C)ccc1OCc1cc(C(=O)NCc2n[nH]c3c2CCC3)no1 | active: 11.2 µM |
| Nc1nc2c(c(N3CC[C@@H](O)C3)n1)CCN(C(=O)[C@H]1CCCO1)CC2 | inactive |
| CCOc1ccc(-c2cc3c(=O)n(CCNC(=O)Cc4ccccc4C)ccn3n2)cc1 | inconclusive: 3.98 µM [inhibitor, full curve] |
| CN(Cc1cnccn1)C(=O)c1csc2nc(-c3cccc(C(F)(F)F)c3)cn12 | inconclusive: 14.1 µM [inhibitor, partial curve] |
| Cc1ccc(C2=NC3(CCN(C(=O)c4cccc(F)c4)CC3)ON2)cc1 | inconclusive: 39.8 µM [inhibitor, partial curve] |
| Fc1ccccc1-c1noc(-c2nc(C3CC3)no2)n1 | active: 4.47 µM |
| COCCN1C(=O)c2ccccc2C(C(=O)Nc2cccc(OC)c2)C12CCCC2 (stereo not given) | inactive |
| Cc1ccc(NC(=O)C2CCN(C(=O)c3ncn4c3COC(c3ccc(F)cc3)C4)CC2)c(Cl)c1 (stereo not given) | active: 25.1 µM |
| O=C(NCC1CCN(c2cc(-c3ccc(F)cc3)[nH]n2)CC1)c1n[nH]c2c1CCCC2 | inconclusive: 39.8 µM [inhibitor, partial curve] |
| Cc1ccc(C(=O)N2CCC(CCC(=O)NC3CCCCC3)CC2)cc1 | inconclusive: 50.1 µM [inhibitor, partial curve, poor fit] |
| CCN(CC)c1ccc(C(=O)N2CCCC2c2nncn2Cc2ccncc2)cc1 (stereo not given) | inconclusive: 44.7 µM [inhibitor, partial curve] |

| Compound | Potency |
| --- | --- |
| CN(C(=O)c1ccc(F)cc1)C1CCOc2ccccc21 (stereo not given) | inconclusive: 100 µM [inhibitor, partial curve, poor fit] |
| Cc1nonc1CC(=O)N1CCc2onc(-c3ccc(F)c(F)c3)c2C1 | inconclusive: 50.1 µM [inhibitor, partial curve, poor fit] |
| Cc1c(-c2ccccc2)[nH]c2c(CNC(=O)CCc3nncn3C)cc(Cl)cc12 | active: 22.4 µM |
| CN1C[C@@H](N)C[C@H]1c1nc(-c2ccc3c(c2)OCO3)no1 | inconclusive: 100 µM [inhibitor, partial curve] |
| c1ccc(Cn2cc(CN3CCCC3)c(-c3ccc4c(c3)OCO4)n2)cc1 | inconclusive: 35.5 µM [inhibitor, partial curve] |
| CN(C)[C@@H]1C[C@@H](CO)N(C(=O)c2csc3nc(-c4ccccc4Cl)cn23)C1 | inconclusive: 50.1 µM [inhibitor, partial curve] |
| O=C(Nc1nccs1)[C@@H]1C[C@H](c2ccc(F)cc2)N(Cc2ccccc2Cl)C1 | inactive |
| CC(C)CC(=O)N1CCc2c(c(-c3nncn3C(C)C)nn2C)C1 | inactive |
| CCCN(C)c1nccnc1OC1CCN(C(=O)C(C)C)C1 (stereo not given) | active: 22.4 µM |
| Cc1cc2nc3n(c(=O)c2n1CC(=O)Nc1cccc(Br)c1)CCCC3 | inactive |
| Cc1ccc(C2Cn3cnc(C(=O)N4CCC(C(=O)NCCC5=CCCCC5)CC4)c3CO2)cc1 (stereo not given) | active: 28.2 µM |
| CN(Cc1cnccn1)c1ccc(-c2nc(CCCc3ccccc3)no2)cn1 | inconclusive: 39.8 µM [inhibitor, partial curve] |
| COc1ccc(CN2C(=O)CO[C@H](c3ccc(NC(=O)Nc4ccccc4)cc3)[C@H]2CO)cc1 | inconclusive: 44.7 µM [inhibitor, partial curve] |
| OC1CCOC2(CCN(Cc3ccccc3OC(F)(F)F)CC2)C1 (stereo not given) | inactive |
| COc1ccc(-c2cc(N3CCCN(C(=O)c4ccc(OC)cc4OC)CC3)n[nH]2)cc1 | inactive |
| CCN(CCOC)C(=O)c1coc(COc2ccc3sc(C)nc3c2)n1 | inactive |
| O=C(Cn1cccc1-c1nc(-c2ccc3c(c2)OCO3)no1)Nc1ccc2c(c1)OCCO2 | inactive |
| COc1ccc(C(=O)N2CCCC3(C2)NC(=O)N(Cc2ccc(C)cc2)C3=O)cc1OC (stereo not given) | inactive |
| COc1ccc(-c2cc3[nH]ccc3c(C(=O)NCc3c(C)cc(C)[nH]c3=O)n2)cc1 | inconclusive: 14.1 µM [inhibitor, full curve] |
| COc1ccccc1-c1nc2nccc(-c3ccc4c(c3)OCCCO4)n2n1 | inconclusive: 28.2 µM [inhibitor, partial curve] |
| CN(C)c1cccc(C(=O)N2CCC3(CC2)N=C(c2ccc(Br)cc2)NO3)c1 | inconclusive: 39.8 µM [inhibitor, partial curve] |
| O=C(NCc1ccccc1)N1CC(Oc2ccc(-c3nc(-c4ccccc4)no3)cc2)C1 | active: 2.51 µM |
